Experimental data published in PubChem BioAssay AID2094 (Broad Institute, 2009).
Hit rate of the full screen: of about 300,000 compounds, about 1,200 (0.4%) were called active. This list was built around the results that the source calls inconclusive (neither active nor inactive); the mix of calls is not that of the screen. Rule as the data show it: active = activity change below about -75% (passing the limit was not always enough); inconclusive = no clear call, values can overlap the other calls.

Test: Vibrio harveyi AI-2 quorum sensing modulators, primary screen, JMH597 strain, luminescence/OD600 ratio (AID 2094);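 also: luminescence divided by OD600 gain over 9 h not by final OD600 alone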
Details: Vibrio harveyi JMH597 AI-2 luminescence/OD600 ratio, 9 h; at 7.5 µM; hits give low values; 0 = neutral-control median; strain lacks LuxN and CqsS sensors

SMILES | activity change
O=c1[nH]c2ccccc2n1CCCOc1ccccc1 | inconclusive: -69.4%
Cc1ccc(NC(=O)CCc2nc3ccccc3s2)c(O)c1 | inconclusive: -62.1%
Cc1ccc(S(=O)(=O)CC(=O)c2ccccc2)cc1 | active: -78.9%
COc1ccc(C2C(C(C)=O)=C(O)C(=O)N2CCO)c(OC)c1 (centres undefined) | inactive: 27.4%
O=C/C(=C\Nc1ccccn1)c1nc2ccccc2o1 | inactive: 19%
CNC(=S)NNC(=O)c1ccccc1Cl | inactive: 14.3%
CCN(CC)CCOc1cccc(C(C)C)c1 | inactive: 21.4%
CCCOc1ccc(NC(=O)C2CCCNC2=O)cc1 (centres undefined) | inconclusive: -74.8%
O=C(N/N=C/c1ccccn1)c1ccc(Br)cc1 | inconclusive: 38.8%
C[C@H](C(=O)CC(=O)OC(C)(C)C)[C@H](O)c1ccc(C(F)(F)F)cc1 | inconclusive: -148%
O=C(O)c1ccc(N/N=C/c2ccc(-c3ccc(Br)cc3)o2)cc1 | active: -96.1%
Cc1ccc(/C=N/n2c(-c3cccs3)n[nH]c2=S)cc1 | inconclusive: -92%
O=C(CNC(=O)c1cccs1)OCc1ccc(Cl)cc1 | active: -79.1%
O=C(NCc1ccc2c(c1)OCO2)Nc1ccc(F)cc1 | inconclusive: -77.1%
COc1cc(C(N)=O)ccc1OCc1ccccc1 | inconclusive: -668%
CN1CC(=O)N(CC(=O)Nc2ccc(Cl)c(C(F)(F)F)c2)C1=O | active: -95.6%
Oc1ccc(Cl)cc1Cc1cc(Cl)ccc1O | active: -112%
Cc1ccc(-c2nn3c(C)nnc3c3ccccc23)cc1S(=O)(=O)NCCN1CCOCC1 | inactive: 25.4%
O=C(Cc1ccc(Br)cc1)Nc1ccc(S(=O)(=O)Nc2ncccn2)cc1 | inconclusive: -74.1%
O=C(Nc1ccc(S(=O)(=O)N2CCCC2)cc1)c1c(F)cccc1F | inconclusive: -72.2%
O=C(NCCCCc1ccccc1)c1ccc(Br)o1 | inconclusive: -76.4%
CCc1ccc(OCC(=O)O/N=C(\N)c2cccnc2)cc1 | active: -91.6%
COC(=O)CN(C)C(=O)c1ccccc1OC1CCN(S(C)(=O)=O)CC1 | inconclusive: -254%
CCCCCOC(=O)Nc1nnc(CCC)s1 | inactive: 19.1%

SMILES | activity change
O=C(NCc1ccc2c(c1)OCO2)c1cccc(C(=O)NCc2ccc3c(c2)OCO3)c1 | active: -85.3%
CC12CCC(C(=O)NNC(=O)c3ccc(F)cc3)(OC1=O)C2(C)C (centres undefined) | inconclusive: -54.4%
Clc1cccc(CSc2nnc(-c3c[nH]c4ccccc34)o2)c1 | active: -87.8%
Nc1cc(Oc2ccc(Cl)cc2Cl)nc(N)n1 | active: -95%
COc1cc(/C=N/NC(=O)c2cccnc2)ccc1OCC(=O)Nc1ccccc1Cl | inactive: -10.5%
CCOC(=O)C1=C(C)NC(=O)NC1c1ccsc1 (centres undefined) | inactive: 9.19%
Cc1c(C(=O)N(C)C(C)c2ccccn2)oc2c(F)cccc12 (centres undefined) | inactive: 27.3%
Cc1ccc(F)cc1NC(=O)C12CC3CC(C1)CC(n1cnc([N+](=O)[O-])n1)(C3)C2 | inactive: -4.69%
Cc1ccc(OCC(=O)NNC(=O)Cn2nnc(-c3ccccc3)n2)cc1 | inconclusive: -71.1%
Cc1ccc(COC(=O)c2ccc3ccccc3n2)cc1 | active: -90.7%
Cc1ccccc1Nc1c(-c2ccncc2)nc2ccc(Br)cn12 | inactive: 18.7%
CCCCOC(=O)Nc1ccc(S(=O)(=O)Nc2nccs2)cc1 | inconclusive: -78.7%
C/C(=N/NS(=O)(=O)c1ccc(Cl)cc1)c1cccc(NC(=O)c2ccc(Cl)cc2Cl)c1 | inactive: -6.3%
Cc1nc2cc(NC(=O)c3ccc([N+](=O)[O-])s3)ccc2s1 | inconclusive: -96.1%
CCCCS(=O)(=O)/C=C\C=C/S(=O)(=O)CCCC | inconclusive: -43.2%
CCc1ccc(/C(C)=N/NC(=O)CNC(=O)/C=C/c2ccccc2OC)cc1 | inactive: 20.6%
CCCCCCCCCCC[N+](C)(C)CC/C=C1/c2ccccc2Sc2ccc(Cl)cc21 | active: -145%
C[C@@H](NC(=O)OC(C)(C)C)c1nnc(S(=O)(=O)Cc2ccccc2)o1 | inconclusive: -71.8%
CN(C)c1ccc(NC(=O)CN2C(=O)c3ccccc3C2=O)cc1 | inconclusive: -74.3%
Cc1cccc(-c2noc(CNC(=O)c3ccco3)n2)c1 | active: -94.1%
O=C(CN1C(=O)NC2(CCOc3ccccc32)C1=O)Nc1ccc2c(c1)OCCO2 (centres undefined) | inconclusive: -77.5%
CCNC(=S)Nc1ccc(NC(=O)c2ccccc2O)cc1 | inconclusive: -72.2%
O=C(NCCc1ccccc1)c1ccnc(/C=N/O)c1 | inconclusive: -77.4%
O=C(N/N=C/c1ccccc1O)C(=O)N1CCCCCC1 | inconclusive: -68.5%

SMILES | activity change
O=C(N/N=C/c1cc(Br)ccc1O)c1ccccc1Cl | inconclusive: -67.8%
Cc1c(C(=O)N2CCC(Cc3ccccc3)CC2)sc2ncnc(N3CCC(C)CC3)c12 | inactive: 15.9%
O=c1[nH]sc2ccccc12 | inconclusive: -34.5%
CCOC(=O)CCCNC(=O)CN1C(=O)NC(c2ccccc2)(c2ccccc2)C1=O | inconclusive: -74.9%
O=C(Cc1ccccc1[N+](=O)[O-])Nc1ccc(S(=O)(=O)N2CCCC2)cc1 | inconclusive: -79.6%
O=c1ccc2ccc(OCCOc3cccc(Cl)c3)cc2o1 | inconclusive: -78.6%
CN1CCSc2ccc(C(=O)NCc3ccccc3F)cc21 | inactive: 15.1%
CN(C)S(=O)(=O)c1ccc(C(=O)OCn2nnc3ccccc3c2=O)cc1 | active: -89.2%
O=C(Nc1nc(SCc2ccc(F)cc2)ns1)c1ccco1 | inconclusive: -78.5%
O=C(CCc1ccccc1)Nc1c(F)cccc1F | inconclusive: -69.3%
CN(C)c1ccc(/C=C/C(=O)c2ccc(O)cc2)cc1[N+](=O)[O-] | active: -93%
Cc1ccc(-c2noc(CNc3ccccc3)n2)cc1 | inconclusive: -75.4%
O=C(/C=C/c1ccccc1)NC(=S)NNC(=O)c1ccco1 | inconclusive: -91.4%
CC(C)(C)C(=O)O/N=C(\N)c1ccc([N+](=O)[O-])s1 | active: -84.2%
O=C(CSc1nc2nccnc2c(=O)n1Cc1cccs1)Nc1ccccc1 | inactive: 23.6%
COC(=O)Cc1ccc(NC(=O)c2ccc(Br)o2)cc1 | inactive: 8.67%
CC12CCC(C(=O)NCCc3ccccc3)(OC1=O)C2(C)C (centres undefined) | inactive: 12.1%
Cc1cccc(C)c1OCC(=O)NNC(=S)NC(=O)C1CC1 | inconclusive: -58%
COc1ccc(C(=O)c2no[n+]([O-])c2C(=O)c2ccc(OC)cc2)cc1 | inconclusive: -78.7%
Cc1cc(C(=O)OCC(=O)Nc2ccc(F)c(F)c2)c(C)o1 | active: -93.5%
O=C1N(Cc2ccc(F)cc2)CCN1c1ccc(F)cc1 | inconclusive: -76.5%
Cc1c(C(=O)Nc2ccc(Br)cc2)cnn1C | inactive: 14.6%
COc1ccccc1/C=C/C=N/n1c(C2CCCCC2)n[nH]c1=S | inconclusive: -75%
Oc1c(C(Nc2ccccn2)c2ccccn2)ccc2cccnc12 (centres undefined) | inconclusive: -68.8%

SMILES | activity change
O=C(NC(=O)c1ccccc1)Nc1ccccn1 | inactive: 10.7%
Cc1ccc(Cl)c(OC(=O)c2ccc(N3CCOCC3)c([N+](=O)[O-])c2)c1 | inactive: 35.8%
O=[N+]([O-])c1cncc([N+](=O)[O-])c1Nc1cccc(O)c1 | inconclusive: -63%
CCC(=O)Nc1nc(OC)cc(OC)n1 | inconclusive: -137%
O=S1(=O)Nc2c(ccc3cccnc23)-c2ccccc21 | inconclusive: -59.3%
COC(=O)c1cc(NC(=O)CN(c2ccc3c(c2)OCO3)S(C)(=O)=O)ccc1Cl | inconclusive: -99%
O=C(Nc1ccccc1F)c1ccc2c(c1)OCO2 | inactive: -3.7%
CCCCCCCCCC[N+](C)(C)CC/C=C1/c2ccccc2Sc2ccc(Cl)cc21 | inconclusive: -99.9%
O=C(N/N=C/c1sc2ccccc2c1O)c1cccc2ccccc12 | inconclusive: -81.2%
O=S(=O)(CCSc1ccccn1)c1nc2ccccc2s1 | inconclusive: -79.3%
CCOc1ccc(/C=N/NC(=O)c2[nH]ncc2Br)c(O)c1 | inconclusive: -79.5%
COC(=O)c1ccc(NC(=O)CN2C(=O)c3ccccc3S2(=O)=O)cc1 | active: -89.9%
O=C(NCc1ccccc1)c1nc2ccccc2s1 | inconclusive: -76.9%
O=C(CN1C(=O)c2ccccc2C1=O)Nc1cccc(S(=O)(=O)Nc2ccccc2Cl)c1 | active: -82.7%
O=C(Nc1cc(-c2ccccc2)[nH]n1)c1ccccc1 | active: -79.3%
CCOC(=O)c1cccc(N2C(=O)C3C(C2=O)C2C=CC3C23CC3)c1 (centres undefined) | inconclusive: -401%
CO[C@H]1C=CO[C@@]2(C)Oc3c(C)c(O)c4c(O)c(c5c(c4c3C2=O)NC2(CCN(CC(C)C)CC2)N=5)=NC(=O)C(C)=CC=C[C@H](C)[C@H](O)[C@@H](C)[C@@H](O)[C@@H](C)[C@H](OC(C)=O)[C@@H]1C | inconclusive: -79.5%
O=C(Nc1nnc(C2=COCCO2)o1)c1ccc(Br)cc1 | inconclusive: -58.7%
Cc1cccc(N2CCN(Cc3nc(CC4CC4)no3)CC2)n1 | inconclusive: -116%
CN1CCN(CC(=O)Nc2cc(N(C)C)nc3ccccc23)CC1 | inactive: 8.39%
O=C(NNc1nc(-c2ccc(Br)cc2)cs1)c1ccco1 | active: -84.7%
Oc1ccc(NC(=S)N=Nc2c(O)[nH]c3ccc(Br)cc23)cc1 | inconclusive: -22.6%
